# Measurements as given in PubChem BioAssay AID1030 (National Center for Advancing Translational Sciences (NCATS), 2008).
# Among all 220,000 compounds or so, about 16,000 (7.3%) were called active. The shares of active, inactive and inconclusive entries below differ from those in the screen. The call rests on the fitted dose curve; in most records, active means well fitted inhibition curve with a large enough effect (not every such curve was filed as active); inconclusive means small, poorly fitted or top-dose-only effect, or another doubt; inactive means no such curve, though single readings can be large or run the other way. Potencies of inconclusive entries are left out as doubtful fits.
# Target: Aldehyde dehydrogenase 1A1 (Homo sapiens) (UniProt P00352)
# Sequence of UniProt P00352 (P00352 whole entry, looked up): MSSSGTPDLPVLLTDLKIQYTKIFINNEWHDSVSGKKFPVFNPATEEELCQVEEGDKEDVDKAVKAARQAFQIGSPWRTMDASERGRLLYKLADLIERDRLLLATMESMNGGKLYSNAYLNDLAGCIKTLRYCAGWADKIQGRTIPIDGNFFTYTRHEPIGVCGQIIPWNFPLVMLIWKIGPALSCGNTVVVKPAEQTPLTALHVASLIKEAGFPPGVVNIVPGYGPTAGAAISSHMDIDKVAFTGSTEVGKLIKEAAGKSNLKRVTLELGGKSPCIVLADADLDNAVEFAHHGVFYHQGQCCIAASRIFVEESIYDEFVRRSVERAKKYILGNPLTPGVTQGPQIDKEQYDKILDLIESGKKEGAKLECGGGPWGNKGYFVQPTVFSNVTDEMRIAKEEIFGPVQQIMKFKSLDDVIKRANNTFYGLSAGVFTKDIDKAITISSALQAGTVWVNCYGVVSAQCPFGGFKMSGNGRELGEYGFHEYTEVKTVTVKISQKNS
# Test: qHTS Assay for Inhibitors of Aldehyde Dehydrogenase 1 (ALDH1A1);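 on activity, negative = inhibition: plate controls were no enzyme wells and a reference inhibitor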
# Details: Purified ALDH1A1, NADH fluorescence, propionaldehyde substrate; series mostly up to 75.3 µM; activity, negative = inhibition: at the top concentration
# Potency means the concentration at half of the fitted maximal effect; tags describe the fitted curve by direction and shape.
Compound,Potency,"activity, negative = inhibition"
COC(=O)c1cnn(-c2ccccc2)c1-n1cccc1C=O,"inconclusive [inhibitor, single point]",–
O=C1c2ccccc2NC(c2ccccc2)N1CCCN1CCOCC1 (stereo not drawn),"inconclusive [inhibitor, partial curve]",–
Cc1cc(C)c2c(n1)sc1c(=O)n(Cc3ccccc3Cl)nnc12,"inconclusive [inhibitor, full curve]",–
Cc1ccc(C(C)C)c(OCC(=O)Nc2ccc3c(c2)nc(CN2CCCC2)n3C)c1,"inconclusive [inhibitor, partial curve]",–
COc1ccc(-c2cc(C(=O)OCC(=O)Nc3cc(C)on3)c3ccccc3n2)cc1OC,"inconclusive [inhibitor, single point]",–
CCOc1cc(/C=N/O)cc(Br)c1OCC(=O)NCc1ccccc1,"inconclusive [inhibitor, partial curve]",–
Cc1ccc(-n2c(=O)cc(N3CCc4ccccc4C3)[nH]c2=O)cc1,"inconclusive [inhibitor, partial curve]",–
COc1ccc(Cl)cc1NC(=S)NCCSc1ccc(C)cc1,"inconclusive [inhibitor, partial curve]",–
O=C(Cn1nnc2ccccc2c1=O)N1CCOCC1,–,inactive: 7.79%
CC1(C)Cc2nc3sc4c(=O)[nH]cnc4c3cc2CS1,active: 14.1 µM,–
CC1CCC2C(=O)OC(CN3C(=O)c4ccccc4C3=O)CN2C1c1ccc(Br)cc1 (stereo not drawn),"inconclusive [inhibitor, partial curve]",–
COc1ccc(NC(=O)CSc2nc3ccccc3c3nc4ccccc4n23)cc1,–,inactive: -12.1%
CC(C)(C)C(=O)COC(=O)CNC(=O)c1ccc(Oc2ccccc2)cc1,"inconclusive [inhibitor, partial curve]",–
COc1ccc(-c2ccc(CCC(=O)O)n2Cc2ccco2)cc1,"inconclusive [inhibitor, single point]",–
Cc1cc(C)cc(NC(=O)C(OC(=O)C2=COCCO2)c2ccccc2)c1 (stereo not drawn),"inconclusive [inhibitor, single point]",–
CC(C)CCNC(=O)Cc1ccc(Nc2nc(=S)[nH]c3ccccc23)cc1,–,inactive: 4.49%
COc1cccc(CNc2nc3nc(C)c(Cl)c(C)n3n2)c1,"inconclusive [inhibitor, single point]",–
O=C(c1ccc(S(=O)(=O)N2CCCCC2)cc1)N1CCCc2ccccc21,"inconclusive [inhibitor, partial curve]",–
CCOc1ccc(NC(=O)C2=C(C)NC(=S)NC2c2ccc(O)c(OC)c2)cc1 (stereo not drawn),–,inactive: -2.52%
CN(c1ccccc1C(=O)Nc1ccc2c(c1)OCO2)S(C)(=O)=O,–,inactive: -1.07%
Cc1ccc2c(CN3C(=O)NC(C)(c4ccc5c(c4)OCO5)C3=O)cc(=O)oc2c1 (stereo not drawn),"inconclusive [inhibitor, single point]",–
O=C(Nc1ccc(Oc2cccc(C(F)(F)F)c2)nc1)c1cccs1,–,inactive: -0.824%
COc1ccccc1-c1nnc(SCC(=O)N2CC(C)CC(C)C2)o1 (stereo not drawn),"inconclusive [inhibitor, single point]",–
CCn1cnc2c1c(=O)n(Cc1csc(-c3ccccc3)n1)c(=O)n2Cc1ccccc1,"inconclusive [inhibitor, single point]",–

Compound,Potency,"activity, negative = inhibition"
CC(=O)c1cccc(NC(=S)NC(=O)c2ccc(Cl)cc2)c1,active: 25.1 µM,–
Cc1ncc([N+](=O)[O-])n1CC(=O)NC(C)(C)C,–,inactive: 2.27%
O=C(CN1CCN(c2ccc([N+](=O)[O-])cc2)CC1)Nc1ccccn1,"inconclusive [inhibitor, single point]",–
Cc1cc(C)n(-c2nc3nonc3nc2-n2nc(C)cc2C)n1,–,inactive: -0.391%
COc1cccc(NC(=O)CSc2nnc(CNC(=O)c3ccccc3)n2C)c1,–,inactive: 0.939%
Cc1cc(=O)[nH]c(N=N/C(=N/Nc2ccc(O)cc2)c2ccccc2)n1,active: 14.1 µM,–
Cc1ccc(-n2cc(CN(C)CCc3cn[nH]c3)c(-c3cccc(C)c3)n2)cc1,–,inactive: -7.94%
COc1ccc2c(COC(=O)c3n[nH]c4ccccc34)cc(=O)oc2c1,"inconclusive [inhibitor, partial curve]",–
O=C(Cn1c(=O)oc2ccccc21)NC(=O)NCc1ccco1,"inconclusive [inhibitor, single point]",–
CCOC(=O)NC(O)C(=O)c1cccs1 (stereo not drawn),–,inactive: -5.69%
CCOc1cc(CN2CCN(C(=O)c3ccco3)CC2)ccc1OC,"inconclusive [inhibitor, single point]",–
CN(C)c1ccc(CNCCC2(O)CCOC(C)(C)C2)cc1 (stereo not drawn),"inconclusive [inhibitor, single point]",–
CCSc1nc(=S)cc(C)[nH]1,active: 28.2 µM,–
CCn1c(=O)c([N+](=O)[O-])c(NCCc2ccccc2)c2ccccc21,"inconclusive [inhibitor, single point]",–
O=C(c1ccc(C#CC2(O)CCCCC2)cc1)N1CCN(C(c2ccccc2)c2ccccc2)CC1,active: 25.1 µM,–
CSc1ccccc1NC(=O)c1ccc(Cl)s1,"inconclusive [inhibitor, single point]",–
COc1ccc(Cn2c(=S)[nH]c3ccsc3c2=O)cc1,"inconclusive [inhibitor, single point]",–
O=C(O)[C@@H]1Cc2ccccc2N1,–,inactive: -11.8%
Cc1nc2nc(-c3cccs3)cn2nc1C,"inconclusive [inhibitor, partial curve]",–
CC(/C=N\Nc1nnc2c(n1)[nH]c1c(C)cccc12)=C\c1ccco1,–,inactive: 2.01%
CN(C)CCCNc1nc(-c2ccccc2)nc2ccccc12,"inconclusive [inhibitor, partial curve]",–
CCOC(=O)c1ccccc1NC1OC(=O)c2ccccc21 (stereo not drawn),"inconclusive [inhibitor, single point]",–
Cn1c(O)c(N=NC(=O)Cn2c(C(F)(F)F)nc3ccccc32)c2ccccc21,–,inactive: -0.438%
COc1cc(OC)c(NC(=S)Nc2cc(Cl)cc(Cl)c2)cc1Cl,"inconclusive [inhibitor, single point]",–
